No constants are given. Whether binding was seen depends on the method and setting. Some entries that bind do so weakly or less than the wild type.
Key:
Assay in all cases: two-hybrid; S. cerevisiae AH109 co-transformed with pGBKT7-ARF (bait) and pGADT7-Aux/IAA (prey); growth on SD/-Ade-His-Leu-Trp against SD/-Leu/-Trp; at least 10 independent colonies; serial dilutions for strength
[1] = target: T1, ARF8 (Arabidopsis thaliana) (UniProt Q9FGV1)
T1 sequence: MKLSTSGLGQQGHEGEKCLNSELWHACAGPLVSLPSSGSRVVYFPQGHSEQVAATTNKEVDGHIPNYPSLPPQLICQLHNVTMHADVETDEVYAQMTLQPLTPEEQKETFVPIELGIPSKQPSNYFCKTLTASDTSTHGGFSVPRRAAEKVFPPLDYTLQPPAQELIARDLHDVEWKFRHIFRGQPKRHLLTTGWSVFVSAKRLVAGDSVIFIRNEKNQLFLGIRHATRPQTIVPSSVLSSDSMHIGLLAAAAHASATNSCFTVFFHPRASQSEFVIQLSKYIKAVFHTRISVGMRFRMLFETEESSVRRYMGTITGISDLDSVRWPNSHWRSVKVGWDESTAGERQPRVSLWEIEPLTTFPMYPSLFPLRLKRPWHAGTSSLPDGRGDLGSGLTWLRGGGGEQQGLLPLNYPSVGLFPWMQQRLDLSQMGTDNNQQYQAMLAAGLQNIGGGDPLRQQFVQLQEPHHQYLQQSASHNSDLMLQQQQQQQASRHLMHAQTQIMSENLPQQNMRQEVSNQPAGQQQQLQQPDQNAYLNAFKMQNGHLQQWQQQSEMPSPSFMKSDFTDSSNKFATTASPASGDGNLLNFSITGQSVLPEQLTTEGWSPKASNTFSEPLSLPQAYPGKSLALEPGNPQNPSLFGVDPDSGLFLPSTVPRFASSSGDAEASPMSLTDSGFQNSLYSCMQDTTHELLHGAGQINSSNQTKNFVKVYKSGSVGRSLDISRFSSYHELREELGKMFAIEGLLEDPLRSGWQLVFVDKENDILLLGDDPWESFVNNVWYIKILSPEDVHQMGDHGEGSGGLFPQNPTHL

Sequences of proteins named here, by UniProt entry; tags and fusion partners are left off.
UniProt Q38832: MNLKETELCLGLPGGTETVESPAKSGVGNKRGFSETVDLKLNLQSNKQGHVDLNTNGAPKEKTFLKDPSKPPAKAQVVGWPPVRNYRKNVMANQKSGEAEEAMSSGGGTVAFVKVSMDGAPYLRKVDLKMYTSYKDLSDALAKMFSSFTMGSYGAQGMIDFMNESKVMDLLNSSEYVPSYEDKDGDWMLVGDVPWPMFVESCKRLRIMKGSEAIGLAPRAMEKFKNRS
UniProt Q38825: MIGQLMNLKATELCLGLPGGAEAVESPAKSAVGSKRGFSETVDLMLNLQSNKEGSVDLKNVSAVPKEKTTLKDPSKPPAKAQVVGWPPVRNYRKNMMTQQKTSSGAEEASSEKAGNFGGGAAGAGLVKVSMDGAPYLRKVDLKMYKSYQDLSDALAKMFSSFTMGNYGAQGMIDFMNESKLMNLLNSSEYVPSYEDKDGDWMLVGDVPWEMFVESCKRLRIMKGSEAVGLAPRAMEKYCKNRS
UniProt P93830: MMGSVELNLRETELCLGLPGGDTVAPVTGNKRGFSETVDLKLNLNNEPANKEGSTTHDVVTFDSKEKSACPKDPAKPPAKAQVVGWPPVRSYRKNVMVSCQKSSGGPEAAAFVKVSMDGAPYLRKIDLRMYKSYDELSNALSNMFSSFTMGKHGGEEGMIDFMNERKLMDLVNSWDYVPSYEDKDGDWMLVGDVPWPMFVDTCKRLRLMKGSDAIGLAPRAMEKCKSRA

[2] = target: T2, ARF11 (Arabidopsis thaliana) (UniProt Q9ZPY6)
T2 sequence: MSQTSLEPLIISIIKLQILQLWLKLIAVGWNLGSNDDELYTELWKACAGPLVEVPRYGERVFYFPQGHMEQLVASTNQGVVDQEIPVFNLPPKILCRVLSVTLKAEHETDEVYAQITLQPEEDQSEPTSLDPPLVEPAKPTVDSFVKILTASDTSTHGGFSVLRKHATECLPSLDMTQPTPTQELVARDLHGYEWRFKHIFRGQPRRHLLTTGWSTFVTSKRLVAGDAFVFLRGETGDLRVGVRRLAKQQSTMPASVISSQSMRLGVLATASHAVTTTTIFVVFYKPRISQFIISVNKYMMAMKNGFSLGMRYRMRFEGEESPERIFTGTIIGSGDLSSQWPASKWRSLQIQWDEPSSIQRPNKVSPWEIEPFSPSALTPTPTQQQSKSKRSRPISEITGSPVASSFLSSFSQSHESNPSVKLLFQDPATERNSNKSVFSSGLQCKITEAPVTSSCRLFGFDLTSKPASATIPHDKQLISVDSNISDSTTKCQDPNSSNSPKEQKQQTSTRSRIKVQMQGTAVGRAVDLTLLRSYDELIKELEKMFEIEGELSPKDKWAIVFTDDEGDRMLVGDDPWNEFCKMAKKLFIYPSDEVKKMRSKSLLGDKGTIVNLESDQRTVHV

[3] = target: T3, ARF12 (Arabidopsis thaliana) (UniProt Q9XID4)
T3 sequence: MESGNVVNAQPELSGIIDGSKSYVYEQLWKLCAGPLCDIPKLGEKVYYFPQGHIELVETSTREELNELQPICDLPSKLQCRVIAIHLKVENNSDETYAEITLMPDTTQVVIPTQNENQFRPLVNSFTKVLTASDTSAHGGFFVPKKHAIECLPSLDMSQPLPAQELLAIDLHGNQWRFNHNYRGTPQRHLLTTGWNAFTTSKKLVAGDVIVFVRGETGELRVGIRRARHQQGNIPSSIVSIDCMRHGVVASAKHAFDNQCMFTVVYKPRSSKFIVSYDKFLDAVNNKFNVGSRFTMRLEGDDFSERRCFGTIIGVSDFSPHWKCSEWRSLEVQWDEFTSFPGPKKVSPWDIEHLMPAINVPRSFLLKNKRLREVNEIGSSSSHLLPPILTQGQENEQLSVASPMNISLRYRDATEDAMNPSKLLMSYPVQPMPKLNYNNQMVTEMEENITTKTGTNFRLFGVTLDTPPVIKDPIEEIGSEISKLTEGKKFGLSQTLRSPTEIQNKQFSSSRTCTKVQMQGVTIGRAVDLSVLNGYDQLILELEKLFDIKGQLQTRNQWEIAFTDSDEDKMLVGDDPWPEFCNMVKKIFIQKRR

[4] = target: T4, ARF3 (Arabidopsis thaliana) (UniProt O23661)
T4 sequence: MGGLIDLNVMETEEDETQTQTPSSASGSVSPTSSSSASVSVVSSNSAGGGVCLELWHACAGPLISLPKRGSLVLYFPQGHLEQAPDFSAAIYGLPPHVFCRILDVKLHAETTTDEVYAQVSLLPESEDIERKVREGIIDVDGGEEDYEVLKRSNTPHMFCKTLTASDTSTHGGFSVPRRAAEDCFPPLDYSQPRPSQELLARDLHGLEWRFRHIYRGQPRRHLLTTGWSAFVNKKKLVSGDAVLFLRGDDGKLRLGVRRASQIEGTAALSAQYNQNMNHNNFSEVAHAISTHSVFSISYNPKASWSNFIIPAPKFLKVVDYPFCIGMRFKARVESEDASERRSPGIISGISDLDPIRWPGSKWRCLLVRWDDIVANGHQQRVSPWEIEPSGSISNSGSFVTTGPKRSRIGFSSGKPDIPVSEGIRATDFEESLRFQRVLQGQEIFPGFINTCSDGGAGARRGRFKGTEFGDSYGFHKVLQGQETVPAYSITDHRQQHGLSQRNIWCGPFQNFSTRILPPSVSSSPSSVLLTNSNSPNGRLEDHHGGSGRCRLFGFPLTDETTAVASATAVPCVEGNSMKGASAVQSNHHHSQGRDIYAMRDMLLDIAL

With Aux/IAA14 (from UniProt Q38832 1-228) the binding [1] was “binds”, the binding [2] was “no binding” and the binding [3] was “no binding”. For the same substance, the binding [4] was “no binding”.
With Aux/IAA7 (from UniProt Q38825 1-243) the binding [1] was “binds”, the binding [2] was “no binding” and the binding [3] was “no binding”. For the same substance, the binding [4] was “no binding”.
Aux/IAA17 (from UniProt P93830 1-229) was tested, and the binding [1] was “binds”, the binding [2] was “no binding” and the binding [3] was “no binding”. The binding [4] was “no binding”.

Reference: publication PMC4274898
